The supplement of paper PMC3334620
The full ranking holds about 33,000 sequences; the median of “E-score (-0.5 to 0.5)” is about -0.016, and the highest 2% start at about 0.32. The list shows a part of the results.

What follows are sequences tested against T1, Stp1 (UniProt B3LFK1) (assay: PBM E-score (8-mer binding enrichment) (E-score (-0.5 to 0.5)); higher = stronger / more preferred TF binding; most listed sequences are background and not binding sites). Details: protein concentration: 200 nM; construct: GST-full length.
T1 sequence: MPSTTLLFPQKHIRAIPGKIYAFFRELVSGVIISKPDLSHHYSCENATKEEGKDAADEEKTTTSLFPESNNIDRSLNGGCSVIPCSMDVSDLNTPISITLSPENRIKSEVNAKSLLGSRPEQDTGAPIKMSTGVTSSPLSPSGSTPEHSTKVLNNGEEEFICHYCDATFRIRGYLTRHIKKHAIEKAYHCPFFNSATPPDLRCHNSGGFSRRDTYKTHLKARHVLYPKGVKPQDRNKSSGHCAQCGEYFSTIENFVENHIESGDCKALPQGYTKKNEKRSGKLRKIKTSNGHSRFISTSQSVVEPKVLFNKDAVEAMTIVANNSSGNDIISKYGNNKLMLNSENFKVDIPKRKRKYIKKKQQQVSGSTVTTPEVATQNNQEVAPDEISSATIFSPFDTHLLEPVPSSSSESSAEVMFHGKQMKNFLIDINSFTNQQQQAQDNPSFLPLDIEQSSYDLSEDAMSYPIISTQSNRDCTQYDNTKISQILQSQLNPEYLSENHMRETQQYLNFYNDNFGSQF
In short: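 Universal all-10-mer Agilent arrays, double-stranded by primer extension on fresh or once-stripped slides, were probed with about 100-200 nM GST-tagged yeast transcription factors made by PURExpress. Fluorescent anti-GST detected bound protein, and masliner normalised the scans. E-scores from the Universal PBM Analysis Suite were given to each ungapped eight-base word pooled with its reverse complement.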

Sequence	PBM E-score
ATGCGCCA	0.0976
ATTCTGCA	0.133
ATCTGGGC	-0.00136
GCTCCGAC	-0.314
AGCGCGAT	0.195
GCAGTCCA	0.121
ATTGTGGG	-0.231
ACGGTTCC	0.0184
CTTATCGC	0.0251
TGGCACCA	0.176
GACCGCAC	-0.177
GAAATATA	0.241
CAAGAGAG	-0.0299
CGCCTGTC	-0.0688
CAGTCAGG	-0.188
CTACTGCA	-0.146
ATCACTGA	-0.0416
ATCGTCAG	-0.191
ACGAAATA	0.181
GCCGTACC	0.46
CAGGCCGG	-0.233
AACCACAG	-0.23
ACCATGCC	0.199
GTCGAGGA	-0.285
AAGGCGTC	0.296

Sequence	PBM E-score
TAGATACA	0.0954
CCCTCATC	-0.344
CATGCGAA	0.111
CTGTAAAG	0.0921
CCGTGGAG	0.205
CCTGCCCA	-0.259
CAGTCCGA	-0.112
AATAGACG	0.144
ATTGTGAG	-0.00101
ACGCCAAT	0.072
CCTCGCAG	-0.0486
ACGTCATA	0.0696
CCTATAGC	-0.147
AGCATACG	-0.0138
ATCCCACG	-0.209
CTTAGGTC	-0.175
AACTGCCA	0.0646
AGCGCATA	-0.099
CCTTCGGA	-0.147
CGCTCAGA	-0.108
CTCACTAA	0.0486
ACCATCAA	-0.149
CCGTCAGC	-0.133
GCCAGATA	0.0195
CTAATATC	-0.0373

Sequence	PBM E-score
AACGGTCA	0.0522
GCAGGGCC	0.00028
CATGGGAC	-0.173
CGACTTTC	-0.0611
GCACAGTA	0.186
AATACCGG	-0.2
CGCAAGAA	0.144
CCGAGACG	-0.0759
AACTGCCG	0.329
GCAAGAAA	0.0932
ATCGTATC	-0.166
TAAAGCTA	0.0639
AGTGCCCA	0.0772
CGCCGCTA	0.299
AGTCCTTG	-0.0837
GGACGGAC	-0.0965
GATGGCAA	0.166
AACTTACG	0.154
CAGGAAAC	0.0237
GTACTATA	0.17
CCGAGACC	-0.127
TTAATCAA	0.171
GAACCGAA	0.152
GGGAAACC	-0.108
AAATCCGG	-0.0958

Sequence	PBM E-score
CAAAAGCA	-0.034
AGCGAAGC	0.0148
GTGAAAAC	0.0563
CATCACCC	-0.127
GGAGCAAC	-0.177
ACAGCGCT	0.0298
AAGTTGAC	0.06
ACCAACCT	-0.0781
CTAAACAA	-0.015
ATCCCCCG	-0.294
CGTTAATC	0.238
CGAGGGGA	-0.223
GGTGATAA	-0.105
AGGTAAAT	0.0437
CGGGGCTC	-0.169
TAGCACTA	-0.0614
ACAGTCTA	-0.00216
CCACTTGA	0.0126
GGGAATAC	-0.0243
GGATGCCA	-0.0764
GGTCAGTA	-0.0339
GCTATTAC	0.0321
ACTTGAAG	0.119
CGTGCCGC	0.475
ACACTGAG	-0.14

Sequence	PBM E-score
ATTCATCG	0.108
ATCTCTGA	-0.0536
CCTAACCG	-0.151
GCTCTTCC	-0.228
AAACCGAC	0.024
CAAAACGG	0.308
ATCAAGCC	0.0655
AAAGTGGT	-0.0258
ACACATAC	-0.0529
TCATAAAA	0.075
AAGCCCTC	-0.348
CCGCGGGC	0.215
CTAAATGA	0.0316
AGCGGTTC	-0.146
ACACCTAA	0.0137
ACGGAATG	0.0305
GGACTGAA	-0.104
CCAGTGTC	-0.112
AATCCGAT	0.0131
GCAAACTA	0.00873
CAGAAACA	0.175
GCGTGGCC	0.033
ATTGGTAA	0.11
AGCGATGC	-0.0717
ACGGGGAA	-0.0268

Sequence	PBM E-score
AAACCAGA	-0.0442
ACAGATGA	-0.159
AACACCCT	-0.281
CTTCATCC	-0.151
CTCGAGCA	0.143
ACAAGTGC	-0.127
CGGCCTTA	0.293
AGAATCAT	-0.12
GCACAGCA	0.183
AACAACGT	-0.046
ACTGGGAC	-0.288
AGACGATC	-0.251
CATACCAA	-0.0291
CTGCGTTC	0.0719
CCGGAGTA	-0.0072
GCACAGAA	0.0354
ACGTGCCA	0.148
GGACCGTA	-0.17
CCCGCGGG	0.104
ATCGTCTG	0.0798
CGTCAGTC	-0.169
GGCGCCAA	0.379
CGCACACA	0.0485
AAGTTTCA	0.178
GCTTGCTA	-0.194

Sequence	PBM E-score
AGTTGAGA	-0.0601
ATATTCGG	0.0873
ATTTACGC	0.154
TATACTAA	0.00063
GGCGGCCA	-0.0116
CATGCTAC	-0.135
AGGCCCAG	-0.314
GATAGCCA	-0.166
CTGATAAA	0.0491
ACTATATA	0.243
CCCGACCC	-0.208
ACCGACAG	0.0513
ACCGAGTC	-0.367
TAACAGTA	0.129
CGTGCCCC	0.0449
CGCTACGA	-0.0206
CTGTGTGC	-0.146
CACAGGAG	0.0281
CTCGAACC	-0.104
ATGCGTCC	-0.0136
ATAGTAAC	0.0271
GGACGCAA	-0.123
